Experimental data taken from article PMC10220053.
No constants are given. Whether binding was seen depends on the method and setting. For some of these results: Binding seen in cells or lysates may run through a third protein. Some binding calls cover weakened binding; strength is not graded here.

By UniProt entry, the sequences of proteins in these tests, tags left out. Residues count along the entry.
UniProt Q12432, residues 218-401: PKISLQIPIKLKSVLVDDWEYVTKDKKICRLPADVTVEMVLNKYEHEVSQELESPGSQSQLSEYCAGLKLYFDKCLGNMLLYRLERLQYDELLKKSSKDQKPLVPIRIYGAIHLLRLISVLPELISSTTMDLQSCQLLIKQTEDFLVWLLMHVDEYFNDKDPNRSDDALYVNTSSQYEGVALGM

B1: Rco1^PHD1–SID I335A/F336A/L339A (domain or fragment, UniProt Q04779 240-376)
chain: SNASEKIFRDKNNSTIDFENEDFCSACNQSGSFLCCDTCPKSFHFLCLDPPIDPNNLPKGDWHCNECKFKIFINNSMATLKKIESNFIKQNNNVKAAAKALFNIDSHNPKQFQLPNYIKETFPAVKTGSRGQYSDEN
B2: truncated form of Rco1^PHD1–SID (Rco1^240–313) (domain or fragment, UniProt Q04779 240-313)
chain: SNASEKIFRDKNNSTIDFENEDFCSACNQSGSFLCCDTCPKSFHFLCLDPPIDPNNLPKGDWHCNECKFKIFIN

Legend:
[1] = target: C-terminal MRG domain of Eaf3 (Eaf3^MRG, aa 218–401) (S. cerevisiae) (UniProt Q12432); assay: pull-down; GST pull-down / affinity pull-down of Eaf3^MRG (wild type and mutants) with Rco1^PHD1–SID (wild type, mutants, truncation); which partner carried GST is not told
[2] = target: C-terminal MRG domain of Eaf3 (Eaf3^MRG, aa 218–401) (S. cerevisiae) (UniProt Q12432); assay: pull-down; GST pull-down of Eaf7^108–143 (wild type and mutants) with Eaf3^MRG (wild type and mutants); which partner carried GST is not told
[3] = target: Eaf3^MRG–Rco1^PHD1–SID complex (S. cerevisiae) (UniProt Q12432+Q04779); assay: ITC; SUMO–Eaf7^108–143 or SUMO alone with Eaf3^MRG or the Eaf3^MRG–Rco1^PHD1–SID complex; both purified

Binder	binding [2]	further results
B1		binding [1]: binds
EETLLEANNRIRVRKQDFTLPWEEYGELILENARKS (domain or fragment, UniProt P53911 108-143) [Eaf7^108–143 L114A]	binds	
EETLLELNNRARVRKQDFTLPWEEYGELILENARKS (domain or fragment, UniProt P53911 108-143) [Eaf7^108–143 I118A]	binds	
EETLLELNNRIRVAKQDFTLPWEEYGELILENARKS (domain or fragment, UniProt P53911 108-143) [Eaf7^108–143 R121A]	binds	
EETLLELNNRIRVRKQAFTLPWEEYGELILENARKS (domain or fragment, UniProt P53911 108-143) [Eaf7^108–143 D124A]	binds	
EETLLELNNRIRVRKQDFTLPWEAYGELILENARKS (domain or fragment, UniProt P53911 108-143) [Eaf7^108–143 E131A]	binds	
B2		binding [1]: no binding
EETLLELNNRIRVRKQDATLPWEEYGELILENARKS (domain or fragment, UniProt P53911 108-143) [Eaf7^108–143 F125A]	no binding	
EETLLELNNRIRVRKQDFTAPWEEYGELILENARKS (domain or fragment, UniProt P53911 108-143) [Eaf7^108–143 L127A]	no binding	
EETLLELNNRIRVRKQDFTLPWEEYGELILENARKS (domain or fragment, UniProt P53911 108-143) [SUMO–Eaf7^108–143]		binding [3]: no binding
